Converted amounts (≈) assume the structure as drawn. “And” between values parts separate entries of the source, which are not always exact repeats. Equal entries are not always repeated. M. abscessus ATCC 19977 and its deletion, point and complemented mutants after 5 days of drug at 37 °C plus 24 h of resazurin. Growth in % of untreated wells at the dose given (lower = more inhibition); checkerboards give % inhibition (higher = more inhibition); IC50 from the fitted curve (lower = more potent). No active / inactive call. IC50 values come from the same 384-well curves. Growth is not capped and can exceed 100%. The direction of the checkerboard scale is read from the raw signals. Capreomycin is a mixture.
Tests used:
[1] = tested on: Mycobacterium abscessus ATCC 19977 WhiB7 R76del; experiment: growth relative to untreated wells; higher = more growth (less inhibition)
Description: (§1)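 384-well two-fold dose series, two replicates; 5 days at 37 °C, then 24 h with resazurin; fluorescence scaled to growth and killed controls.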

[2] = tested on: Mycobacterium abscessus ATCC 19977; experiment: growth inhibition; higher = more inhibition
Description: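 384-well checkerboard, three replicates; 5 days at 37 °C, then 24 h with resazurin; fluorescence scaled to growth and killed controls.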

[3] = tested on: Mycobacterium abscessus ATCC 19977 ΔwhiB7; experiment: growth relative to untreated wells; higher = more growth
Description: (§2)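 Two-fold dose series, three replicates; 5 days at 37 °C, then 24 h with resazurin; fluorescence scaled to growth and killed controls.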

[4] = tested on: Mycobacterium abscessus ATCC 19977 Δcat; experiment: as above
Description: as §2

[5] = tested on: Mycobacterium abscessus ATCC 19977; experiment: as above
Description: as §2

[6] = tested on: Mycobacterium abscessus ATCC 19977 Eis2 Y255*
Description: as §1

[7] = tested on: Mycobacterium abscessus ATCC 19977 WhiB7 R76del
Description: as §1

[8] = tested on: Mycobacterium abscessus ATCC 19977 ΔwhiB7
Description: as §1

[9] = tested on: Mycobacterium abscessus ATCC 19977 Eis2 Y284*
Description: as §1

[10] = tested on: Mycobacterium abscessus ATCC 19977 WhiB7 T70fs
Description: as §1

[11] = tested on: Mycobacterium abscessus ATCC 19977 Eis2 T258R
Description: as §1

[12] = tested on: Mycobacterium abscessus ATCC 19977 Δeis2
Description: as §1

[13] = tested on: Mycobacterium abscessus ATCC 19977 Eis2 Y227D
Description: as §1

[14] = tested on: Mycobacterium abscessus ATCC 19977 WhiB7 L37P
Description: as §1

[15] = tested on: Mycobacterium abscessus ATCC 19977 Eis2 E120fs
Description: as §1

[16] = tested on: Mycobacterium abscessus ATCC 19977 WhiB7 F24fs
Description: as §1

[17] = tested on: Mycobacterium abscessus ATCC 19977 WhiB7 A51T
Description: as §1

CS(=O)(=O)c1ccc([C@@H](O)[C@H](N)CF)cc1 [florfenicol amine]
Conditions | growth [%] | growth inhibition
[1], 0.25 µg/mL | 103 | –
[1], 0.5 µg/mL | 108 | –
[1], 1 µg/mL | 103.7 | –
[1], 2 µg/mL | 105 | –
[1], 4 µg/mL | 108 | –
[1], 8 µg/mL | 99.3 | –
[1], 16 µg/mL | 101 | –
[1], 32 µg/mL | 110 | –
[1], 64 µg/mL | 123.7 | –
[1], 128 µg/mL | 14.9 | –
[1], 256 µg/mL | -1.75 | –
[1], 512 µg/mL | -1.15 | –
[2], 0.241504 µg/mL | – | 4.7% and -5.63%
[2], 0.483008 µg/mL | – | 1.14% and -2.07%
[2], 0.966016 µg/mL | – | -4.66% and -4.44%
[2], 1.93203 µg/mL | – | -8.49% and -11.6%
[2], 3.86406 µg/mL | – | -10.9% and -12.5%
[2], 7.72813 µg/mL | – | -8.86% and -10.3%
[2], 15.4563 µg/mL | – | 56.6% and 55.3%
[2], 30.9125 µg/mL | – | 87.7% and 89.1%
[2], 61.825 µg/mL | – | 94.9% and 94.3%
[2], 123.65 µg/mL | – | 99.7% and 101%
[3], 1 µg/mL | 102.4 | –
[3], 2 µg/mL | 98.3 | –
[3], 4 µg/mL | 100 | –
[3], 8 µg/mL | 102 | –
[3], 16 µg/mL | 103 | –
[3], 32 µg/mL | 108 | –
[3], 64 µg/mL | 88.4 | –
[3], 128 µg/mL | 58.8 | –
[3], 256 µg/mL | -0.448 | –
[3], 512 µg/mL | 3.71 | –
[4], 1 µg/mL | 96.1 | –
[4], 2 µg/mL | 79.1 | –
[4], 4 µg/mL | 66.1 | –
[4], 8 µg/mL | 48.3 | –
[4], 16 µg/mL | 34.9 | –
[4], 32 µg/mL | 14.3 | –
[4], 64 µg/mL | -1.9 | –
[4], 128 µg/mL | -5.41 | –
[4], 256 µg/mL | -4.73 | –
[4], 512 µg/mL | -2.02 | –
[5], 1 µg/mL | 104 | –
[5], 2 µg/mL | 88.7 | –
[5], 4 µg/mL | 80.3 | –
[5], 8 µg/mL | 72.7 | –
[5], 16 µg/mL | 61.9 | –
[5], 32 µg/mL | 36.6 | –
[5], 64 µg/mL | 4.88 | –
[5], 128 µg/mL | -3.89 | –
[5], 256 µg/mL | -2.96 | –
[5], 512 µg/mL | 2.55 | –

Conditions | IC50 [µg/mL]
[6] | 60.4 (≈ 244 µM)
[7] | 117 (≈ 474 µM)
[8] | 122 (≈ 493 µM)
[9] | 60.6 (≈ 245 µM)
[10] | 116 (≈ 469 µM)
[11] | 82.3 (≈ 333 µM)
[12] | 138 (≈ 556 µM)
[13] | 72.5 (≈ 293 µM)
[14] | 112 (≈ 452 µM)
[15] | 72.4 (≈ 293 µM)
[16] | 118 (≈ 475 µM)
[17] | 218 (≈ 880 µM)

CO[C@@]1(NC(=O)Cc2cccs2)C(=O)N2C(C(=O)O)=C(COC(N)=O)CS[C@@H]21 [cefoxitin]
[1]
Conditions | growth [%]
0.5 µg/mL | 103
1 µg/mL | 115
2 µg/mL | 102
4 µg/mL | 114
8 µg/mL | 129
16 µg/mL | 5.49
32 µg/mL | -4.59
64 µg/mL | -7.42
128 µg/mL | -5.69
256 µg/mL | -7.03
512 µg/mL | -5.4
1024 µg/mL | -0.564

Conditions | IC50 [µg/mL]
[6] | 13.8 (≈ 32.3 µM)
[7] | 13.9 (≈ 32.5 µM)
[8] | 15.9 (≈ 37.2 µM)
[9] | 9.24 (≈ 21.6 µM)
[10] | 14 (≈ 32.7 µM)
[11] | 14.3 (≈ 33.4 µM)
[12] | 8.67 (≈ 20.3 µM)
[13] | 13.7 (≈ 32 µM)
[14] | 15.5 (≈ 36.2 µM)
[15] | 10.1 (≈ 23.6 µM)
[16] | 14.1 (≈ 33 µM)
[17] | 14.3 (≈ 33.4 µM)

NCC[C@H](O)C(=O)N[C@@H]1C[C@H](N)[C@@H](O[C@H]2O[C@H](CN)[C@@H](O)[C@H](O)[C@H]2O)[C@H](O)[C@H]1O[C@H]1O[C@H](CO)[C@@H](O)[C@H](N)[C@H]1O [amikacin]
[1]
Conditions | growth [%]
0.03125 µg/mL | 102
0.0625 µg/mL | 117
0.125 µg/mL | 111
0.25 µg/mL | 112
0.5 µg/mL | -0.908
1 µg/mL | -1.29
2 µg/mL | 2.15
4 µg/mL | -1.59
8 µg/mL | -1.51
16 µg/mL | -1.43
32 µg/mL | -0.899
64 µg/mL | 0.539

Conditions | IC50 [µg/mL]
[6] | 0.277 (≈ 0.473 µM)
[7] | 0.29 (≈ 0.495 µM)
[8] | 0.251 (≈ 0.428 µM)
[9] | 0.268 (≈ 0.458 µM)
[10] | 0.287 (≈ 0.49 µM)
[11] | 0.317 (≈ 0.542 µM)
[12] | 0.259 (≈ 0.441 µM)
[13] | 0.449 (≈ 0.767 µM)
[14] | 0.291 (≈ 0.497 µM)
[15] | 0.309 (≈ 0.527 µM)
[16] | 0.317 (≈ 0.542 µM)
[17] | 0.317 (≈ 0.542 µM)

NC[C@H]1O[C@H](O[C@H]2[C@H](O)[C@@H](O[C@H]3O[C@H](CO)[C@@H](O)[C@H](N)[C@H]3O)[C@H](N)C[C@@H]2N)[C@H](O)[C@@H](O)[C@@H]1O [kanamycin A]
[1]
Conditions | growth [%]
0.03125 µg/mL | 113
0.0625 µg/mL | 123
0.125 µg/mL | 127
0.25 µg/mL | 132
0.5 µg/mL | 0.301
1 µg/mL | -0.894
2 µg/mL | 0.0977
4 µg/mL | -1.09
8 µg/mL | -1.21
16 µg/mL | -0.958
32 µg/mL | -0.591
64 µg/mL | 0.59

Conditions | IC50 [µg/mL]
[6] | 0.49 (≈ 1.01 µM)
[7] | 0.423 (≈ 0.872 µM)
[8] | 0.267 (≈ 0.551 µM)
[9] | 0.49 (≈ 1.01 µM)
[10] | 0.316 (≈ 0.652 µM)
[11] | 0.45 (≈ 0.928 µM)
[12] | 0.437 (≈ 0.902 µM)
[13] | 0.468 (≈ 0.966 µM)
[14] | 0.314 (≈ 0.648 µM)
[15] | 0.543 (≈ 1.12 µM)
[16] | 0.42 (≈ 0.868 µM)
[17] | 0.429 (≈ 0.886 µM)

CNC1CC(N)C(O)C(OC2OC(CO)C(O)C3OC4(OC(C(N)CO)C(O)C(O)C4O)OC23)C1O (stereo not given) [hygromycin B]
[1]
Conditions | growth [%]
0.5 µg/mL | 111.5
1 µg/mL | 115
2 µg/mL | 113
4 µg/mL | 117.5
8 µg/mL | 52.4
16 µg/mL | -0.305
32 µg/mL | 3.21
64 µg/mL | 2.97
128 µg/mL | -1.6
256 µg/mL | -1.1
512 µg/mL | -0.788
1024 µg/mL | 0.494

Conditions | IC50 [µg/mL]
[6] | 14.7 (≈ 27.8 µM)
[7] | 8.03 (≈ 15.2 µM)
[8] | 7.09 (≈ 13.4 µM)
[9] | 14.4 (≈ 27.3 µM)
[10] | 8.04 (≈ 15.2 µM)
[11] | 14.3 (≈ 27.1 µM)
[12] | 14.3 (≈ 27.1 µM)
[13] | 14.3 (≈ 27.1 µM)
[14] | 7.97 (≈ 15.1 µM)
[15] | 14.5 (≈ 27.6 µM)
[16] | 8.03 (≈ 15.2 µM)
[17] | 13.2 (≈ 25.1 µM)
